# Assay results as given in PMC12040169 (PLOS Biology, 2025).
# The other results are listed elsewhere or left out.
# Tested on: T1, C. trachomatis L2/434/Bu expressing GFP (CTL2-GFP)
# T1 construct: L2/434/Bu GFP intracellular growth in HeLa cells
# Design: species or system HeLa; C. trachomatis total inclusion area by high-content imaging, normalised to DMSO
# Settings: total inclusion area; 28.5 h, 10 µM; inhibitor
# Procedure, shortened: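 Following bulk GFP and resorufin fluorescence reads, infected cells were fixed, Hoechst-stained and imaged on a high-content platform. Inclusion total area and number per well served as growth proxies; nuclei counts indicated host viability. MICs were derived as for the fluorescence assay.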
row,SMILES,% of control remaining
1,N#CC(CC(=O)O)C(Cc1ccccc1)c1ccccc1 (stereo not drawn) [CBK286837],106.105
2,COc1ccc(N2CCN(c3cc(-c4cccc(NC(C)=O)c4)ncn3)CC2)cc1OC [CBK091029],106.105
3,c1cnc(N2CCCC2)c(OC2CCOC2)n1 (stereo not drawn) [CBK115891],73.4183
4,Cc1cc(C(=O)N2C3CCC2CC(O)(c2ccnn2C)C3)sc1C (stereo not drawn) [CBK284518],84.8735
5,Cc1ccc(O)cc1CC[C@@H]1CC(=O)CC2(C)C1CC[C@]2(O)C(=O)COC(=O)CCC(=O)O (stereo partly drawn) [CBK007270],79.2966
6,Nc1ccc2c(c1)/C(=C/c1c[nH]c3ncccc13)C(=O)N2 [CBK010155T],99.5164
7,CCNC(=O)Nc1cc2cccnc2nc1-c1ccc(S(C)(=O)=O)cc1 [CBK070706],103.111
8,CCCN1CCCN(c2ccc(-n3ccc(C)n3)nn2)CC1 [CBK306304],62.1925
9,Cc1cc(N2CCCN(C(=O)CCCOc3ccccc3)CC2)ccn1 [CBK307052],103.106
10,CC1CC(C)CN(C(=O)Cn2c(-c3nonc3N)nc3ccccc32)C1 (stereo not drawn) [CBK264694],100.561
11,CCCC(C(=O)NCCN(C)C1CCCCC1)n1nc(C)cc1C (stereo not drawn) [CBK282039],110.884
12,CCCn1ccc(CNCC(c2ccnn2C)C(C)C)c1 (stereo not drawn) [CBK304861],76.8714
13,O=C(Oc1cccc(/C=N/NC(=O)c2ccccn2)c1)c1cccc(Br)c1 [CBK262115],92.9201
14,NC1CCN(C(=O)Cn2c3ccccc3c(=O)c3ccccc32)C1 (stereo not drawn) [CBK304300C],78.6715
15,Cc1oc(C(C)(C)C)cc1C(=O)NCCNc1c(Cl)cccc1[N+](=O)[O-] [CBK265032],114.16
16,CCCCNC(=S)N1CC[C@@H]2CN(C)C[C@]2(c2ccc(OC)c(OC)c2)C1 [CBK075101T],97.2819
17,c1ccc2c(c1)OCC(COc1nccnc1OC1CCNCC1)O2 (stereo not drawn) [CBK070766T],143.852
18,N#CC1=C(N)n2c(s/c(=C\c3ccc(O)cc3)c2=O)=C(C#N)C1c1ccc(O)cc1 (stereo not drawn) [CBK217780],110.513
19,NC(=O)N/N=C/c1ccncc1 [CBK260922],85.0213
20,CC(=O)N1CCC2(CCCC[C@H]3CN(C(=O)CCC(C)C)CC[C@@H]3NC(=O)CNC2=O)CC1 [CBK292124],105.927
21,Cc1cc(C(C)(C)C)cc(S(=O)(=O)Nc2ccc(O)c(C(=O)O)c2)c1C [CBK266196],131.402
22,COC(=O)c1ccc(Cl)c(NC(=O)CSc2nnc(-c3ccncc3)[nH]2)c1 [CBK268702],115.928
23,CCNc1cc(-c2cncc(OC)c2)ncn1 [CBK090881],95.328
24,CCOC(=O)c1cnc(SCCc2ccccc2)nc1N [CBK085871],84.2539
25,CC(C)C(=O)Nc1cc2ccccc2c(-c2ccc(OCc3ccccc3)c(F)c2)n1 [CBK073783],96.0642
26,Cc1ccc2[nH]c3nc(N/N=C/c4ccc(-c5cccc([N+](=O)[O-])c5)o4)nnc3c2c1 [CBK262365],97.6632

row,SMILES,% of control remaining
1,CC(C)Oc1ncccc1OCCO [CBK001465],55.9539
2,CCn1cc(S(=O)(=O)NCC2(c3ccccc3)CCCC2)cn1 [CBK282768],108.585
3,O=C(c1c(NS(=O)(=O)c2cccc3cccnc23)sc2c1CCCC2)N1CCOCC1 [CBK028655],88.8227
4,CC(=O)c1cc2c(cc1NC(=O)CSc1nc3ccccc3[nH]1)OCO2 [CBK266110],74.2044
5,COc1ccccc1N1CCN(C(=O)NCCC(C)C)CC1 [CBK155611],81.363
6,Cc1nn(C(C)CC(=O)N2CCCC(CN(C)C)C2)c(C)c1Cl (stereo not drawn) [CBK282137],88.13
7,COc1ccc(/C=N/NS(C)(=O)=O)cc1 [CBK261981],92.4494
8,COc1ccc(C(C)NC(=O)c2cc(-c3ccc(F)cc3)[nH]n2)cc1 (stereo not drawn) [CBK288060],89.1435
9,CNC(=O)CSc1nc2ccccc2nc1C(F)(F)F [CBK107206],90.8222
10,Nc1ncc(-c2ccc3c(c2)OCO3)nc1-c1ccc(O)cc1 [CBK122505],73.1485
11,COc1ncccc1CNC(=O)Nc1cccn(CC(F)(F)F)c1=O [CBK305216],42.1291
12,CCOc1cc(/C=C2\SC(=S)N(Cc3cccnc3)C2=O)ccc1OCc1cccc(F)c1 [CBK264615],95.5864
13,Cc1ccc(OCC(=O)O/N=C(\N)c2ccccn2)cc1C [CBK264755],124.818
14,OCCN(CCO)c1cncc(-c2cccc(C(F)(F)F)c2)n1 [CBK037917],106.073
15,O=c1nc2c(cn1[C@H]1C[C@@H](O)[C@@H](CO)O1)Sc1ccccc1N2 [CBK201237],138.332
16,c1ccc(Cn2ccc3c(N4CCNCC4)nccc32)cc1 [CBK051672C],101.787
17,CC(C)(C)OC(=O)N1CCC2(CC1)N=C(c1ccccc1)C(=S)N2 [CBK288478],90.1386
18,CCOc1cc(-c2nc3sc(CC)cc3c(=O)[nH]2)ccc1OCC(=O)O [CBK298291],91.9968
19,Cc1c(C(=O)N2CCC(c3ccncc3)CC2)oc2ccccc12 [CBK282413],94.3355
20,COCCSc1ccccc1C(=O)Nc1ccc(S(N)(=O)=O)cc1 [CBK267530],93.0779
21,Cc1cc(N2CCN(C(=O)CCc3nccs3)CC2)nc(C(C)C)n1 [CBK304778],28.1324
22,CC(C)(C)NC(=O)Cn1cncc1-c1[nH]c2ccccc2c1Cl [CBK281981],98.1448
23,CC(C)(CO)Cn1c(=O)[nH]c2ncc(-c3cccnc3)nc21 [CBK064697],134.184
24,O=C(Nc1ccc(F)c(C(F)(F)F)c1)c1cncc(-c2ccc(C(=O)N3CCOCC3)cc2)c1 [CBK160216],94.4484
25,Cc1nc2c(C(=O)NCCNC(=O)c3cccnc3)ncn2c(C)c1Cc1ccc(F)c(Cl)c1 [CBK169332],133.014
